167 variants from the RNAGym collection of RNA variant scans (doi:10.7554/elife.90254) can be followed below.

First the molecules themselves.
B1: LINE1-mini (parent)
chain: GGCAGAGCUCAACACAGCGUGGCAAAGUGGCUGUGGCUAGACUGCC

Read counts are not given, so values of variants with three or more changes are uncertain.

The series covers variants of B1. Nature of the series: self-cleavage, relative activity (ratio to wild type); higher = more cleavage; in vitro, sequencing; the parent is a self-cleaving ribozyme.
As to G1C G5C A6C G36U, the self-cleavage was 0.07.

As for G1U A26G G27U G40A A41C, the self-cleavage was determined as 0.01.

As to G1U A4C A6U A14U C15A A24U, the self-cleavage worked out at 0.04.

For the variant G1U C13G A14U A39G U43C, the self-cleavage amounted to 0.

As for G1U C10U G29A, the self-cleavage was determined as 0.11.

As to G1U C15U G29U G44U, the self-cleavage was 0.14.

With G1C G7C C8G U9A C15A C42G, the self-cleavage is 0.04.

Regarding G1U C10A C42A C46U, the self-cleavage came to 0.01.

For the variant G1U C10A A14C G29U C46G, the self-cleavage came out at 0.

For G1U C3A A16U G36U, the self-cleavage was found to be 0.47.

Consider G1C U20A G21U, for which the self-cleavage amounted to 0.03.

As for G1C G5U G7A A12C A39U, the self-cleavage came to 0.01.

As for G1C G19U C23A U38A, the self-cleavage was found to be 0.01.

On to G1U G2U A6C U28G G35C C42G, for which the self-cleavage amounted to 0.

As for G1U G5A G21U A25C, the self-cleavage was found to be 0.01.

In the case of G1U A4C C8A C13A G17A A24C, the self-cleavage was found to be 0.22.

Consider G1C G2U A12U C23G G44A, for which the self-cleavage worked out at 0.23.

Consider G1U G2A G7U C13A U43A, for which the self-cleavage turned out to be 0.04.

Regarding G1U A11U G22U, the self-cleavage stood at 0.15.

As to G1U C42U C45A, the self-cleavage came to 0.06.

Consider G1C C13G C18U U32C A41G C42G, for which the self-cleavage was found to be 0.

As for G1U A26U U28A, the self-cleavage was found to be 0.21.

Regarding G1U G5U C8A C18G C45A, the self-cleavage was determined as 0.03.

As to G1U A4G C13A C15A C18A, the self-cleavage came out at 0.03.

On to G1C G35U C37U, for which the self-cleavage came to 0.03.

On to G1C G7A C15A A24C G44C, for which the self-cleavage worked out at 0.16.

In the case of G1U G2A G5A G17A C23G, the self-cleavage was 0.07.

For G1C C31U C46A, the self-cleavage stood at 0.06.

For G1U A14C G27C, the self-cleavage stood at 0.01.

In the case of G1C G27C U38C A41G, the self-cleavage was found to be 0.03.

In the case of G1U C3G A12G G29A G36C, the self-cleavage was determined as 0.04.

With G1C G5C G36U, the self-cleavage stood at 0.02.

As to G1C G17U G33U G36A C46G, the self-cleavage was 0.

As for G1U C31U G44U, the self-cleavage was determined as 0.05.

As to G1U C10G G21U, the self-cleavage came to 0.07.

With G1C G5U C18A G27A U43A, the self-cleavage was 0.

For the variant G1U G2A G36U C37G U43G, the self-cleavage is 0.09.

G1U C8A U9A C42U U43C: the self-cleavage was 0.07.

In the case of G1U A26C U43C, the self-cleavage came to 0.03.

In the case of G1U C13A U20C G29C U32A G36A, the self-cleavage was 0.03.

In the case of G1U C10A A14G, the self-cleavage worked out at 0.02.

For G1U C10A A14C, the self-cleavage was 0.01.

Regarding G1U G5U C8A G17A G44A, the self-cleavage stood at 0.14.

For the variant G1U A6U A16G A24G A26U A39U, the self-cleavage came to 0.03.

Take G1U A14C C31A C46A: the self-cleavage is 0.01.

Turning to G1C G5A C15U G29U, the self-cleavage was found to be 0.08.

For G1C C15A C42U U43A, the self-cleavage is 0.01.

As for G1C U9C C15U G33U, the self-cleavage was found to be 0.01.

As to G1U C10U U32G G35A, the self-cleavage was determined as 0.04.

Regarding G1U C18G U32G, the self-cleavage turned out to be 0.

Consider G1U C8G G17C, for which the self-cleavage is 0.

Regarding G1U G5U G7A G17C, the self-cleavage came out at 0.04.

Take G1C C13G U34G C42G: the self-cleavage stood at 0.

For G1U A26G U28G G30C, the self-cleavage was 0.37.

For G1C G33A G40A, the self-cleavage came out at 0.02.

On to G1U A4G A39C, for which the self-cleavage was 0.04.

G1C G7A C10A G44U C45G: the self-cleavage turned out to be 0.

For the variant G1U G2A C8G, the self-cleavage stood at 0.02.

With G1U A24C G40A, the self-cleavage turned out to be 0.

For G1C G2U G22C, the self-cleavage came out at 0.14.

Regarding G1U G2U C18G A24C G44A, the self-cleavage came out at 0.02.

Take G1U A24C U34C: the self-cleavage turned out to be 0.05.

Turning to G1U C13A G35C G44U, the self-cleavage stood at 0.03.

With G1C C18G U38A C45G, the self-cleavage came out at 0.02.

Turning to G1C G21C A41C, the self-cleavage is 0.02.

Take G1C G5A U32A C46A: the self-cleavage is 0.04.

On to G1C G22C A41G, for which the self-cleavage worked out at 0.

For G1C U9A C37U C46U, the self-cleavage is 0.01.

Take G1C G17A G22A G35U C45U: the self-cleavage came out at 0.03.

Take G1C G2A A12C C31A A41G: the self-cleavage was 0.01.

As to G1U C3G A6U G40C C45U, the self-cleavage came out at 0.17.

G1U C3U G5A A6C A26U: the self-cleavage came out at 0.24.

Consider G1U A16U U20G U43G, for which the self-cleavage was found to be 0.01.

In the case of G1C G7C A16C G40C G44C C46G, the self-cleavage came out at 0.01.

Turning to G1U A25C G36U, the self-cleavage turned out to be 0.01.

Take G1C C15G C42U U43G: the self-cleavage is 0.

On to G1C G7C U9C U20C G40C, for which the self-cleavage stood at 0.01.

Take G1C G36A C37A: the self-cleavage was determined as 0.03.

Consider G1U C13A G19C C42G, for which the self-cleavage stood at 0.01.

G1U C10U C23A: the self-cleavage was determined as 0.06.

G1U C3A A14G G30U G36U C42U: the self-cleavage was determined as 0.3.

For the variant G1U C13U C15U U32G C37U, the self-cleavage came out at 0.02.

In the case of G1U C18G U20A C31G, the self-cleavage is 0.01.

Regarding G1C G22U C45U C46U, the self-cleavage was 0.54.

In the case of G1U A6U G7C C15A G27U, the self-cleavage came out at 0.04.

Turning to G1C G2A A4G A16U C31G G44U, the self-cleavage came out at 0.02.

As for G1U C8G C15G, the self-cleavage was determined as 0.02.

Consider G1U C18U U38A C45A, for which the self-cleavage was 0.05.

In the case of G1C G7A G35A, the self-cleavage is 0.02.

For the variant G1U C18A A26C U28A C31G, the self-cleavage amounted to 0.01.

In the case of G1U C15A G44A, the self-cleavage worked out at 0.39.

G1C G35C U38A: the self-cleavage turned out to be 0.07.

As for G1U C10A C13G A41C, the self-cleavage worked out at 0.01.

Regarding G1C C13U G21C G22C, the self-cleavage turned out to be 0.03.

For G1C U9C A39C, the self-cleavage turned out to be 0.02.

As for G1U A12U C15G C18U G30C, the self-cleavage was 0.

Turning to G1U G5U C8A U9G U34G U43C, the self-cleavage turned out to be 0.06.

With G1U C10A A12C, the self-cleavage was 0.01.

For G1U G2U A6U G33U G36U G40A, the self-cleavage is 0.01.

Turning to G1C G17U U28G G40A, the self-cleavage was 0.01.

Take G1U A6G A24U: the self-cleavage amounted to 0.18.

For the variant G1U C15G C45G, the self-cleavage was 0.02.

For the variant G1U G5A U28A, the self-cleavage turned out to be 0.21.

Take G1U A4G A6U A14C A16U G19A G22C: the self-cleavage worked out at 0.03.

As for G1U G5U C18U C23U, the self-cleavage came to 0.02.

G1C U20A G30A: the self-cleavage amounted to 0.09.

Take G1U A4G U34C: the self-cleavage came to 0.13.

Take G1U C15G G21C A41U: the self-cleavage stood at 0.02.

For G1U A4G U32A G33A, the self-cleavage is 0.06.

Take G1U A6C C10A G33U C42A: the self-cleavage turned out to be 0.01.

For G1U A24G G27A, the self-cleavage is 0.24.

On to G1C G5A C15A C18U A39G, for which the self-cleavage came out at 0.01.

As for G1C G5C C10A C46U, the self-cleavage stood at 0.01.

Consider G1C C23U G33A, for which the self-cleavage worked out at 0.15.

In the case of G1U A24C G40U C42A, the self-cleavage came to 0.08.

As for G1U G2C U9C U28C U32G, the self-cleavage worked out at 0.03.

With G1C G5C G35A G40U, the self-cleavage amounted to 0.02.

With G1C G2U A16U G21U, the self-cleavage was determined as 0.02.

Regarding G1C C13A U28C U32G, the self-cleavage turned out to be 0.07.

Take G1C G5U A24G G27U G29A U34A: the self-cleavage stood at 0.02.

Consider G1U C10G G22U U38A, for which the self-cleavage was found to be 0.05.

In the case of G1C C18U C46A, the self-cleavage is 0.47.

Consider G1C C18U C46U, for which the self-cleavage is 1.34.

On to G1U C3A C23A G27C C46A, for which the self-cleavage turned out to be 0.42.

Turning to G1C C23G G30A C45U, the self-cleavage stood at 0.07.

Take G1U C18A G36U A41G: the self-cleavage came to 0.03.

Consider G1U A14U G29C, for which the self-cleavage was 0.22.

Take G1U A4G C13U G21U A25U C31A: the self-cleavage was 0.03.

Turning to G1C U20A G36C, the self-cleavage came out at 0.02.

G1C C15G G29U: the self-cleavage came out at 0.01.

Consider G1C U9G A16C U32A G40U C46U, for which the self-cleavage turned out to be 0.01.

As for G1C G5C A16G U20C A25U G27U U28A G30U, the self-cleavage came to 0.01.

Consider G1U A24C G29U, for which the self-cleavage turned out to be 0.34.

In the case of G1C G21U C46G, the self-cleavage was 0.06.

As for G1C G2A G22C U28G, the self-cleavage was 0.64.

G1U C13G C15A: the self-cleavage was 0.06.

Consider G1U G5A G21U C37G, for which the self-cleavage is 0.

As for G1U G2C C3G C31U G40C, the self-cleavage amounted to 0.09.

With G1C G7A U9A, the self-cleavage turned out to be 0.02.

Regarding G1U C3A C15G G21A U43C, the self-cleavage stood at 0.

As for G1C G2A C8U A11U C13U G17U, the self-cleavage stood at 0.01.

Take G1C G21A C23G A25G C31G: the self-cleavage amounted to 0.01.

With G1U A26U G44U, the self-cleavage is 0.1.

For the variant G1U C10U A16C G21C A24C, the self-cleavage came out at 0.02.

In the case of G1C G2A A6U A11G, the self-cleavage stood at 0.01.

Turning to G1U C31G C37G, the self-cleavage came to 0.01.

For the variant G1U C3A A6G A24G C31A, the self-cleavage is 0.13.

For G1U A24U A25U C37A, the self-cleavage stood at 0.01.

Turning to G1U G2C G27A G35U, the self-cleavage is 0.06.

With G1C G21A A24U G36C, the self-cleavage is 0.02.

Consider G1U A25G G27U, for which the self-cleavage was 0.04.

On to G1U G2A A6G A11C A16C G35A A41U C42A, for which the self-cleavage is 0.02.

Take G1U A6U G17U U28A: the self-cleavage was 0.03.

Consider G1U C3G C10U U20A A26C, for which the self-cleavage turned out to be 0.07.

In the case of G1U C3U C13U C31G C37G A41C, the self-cleavage was 0.06.

As to G1U G2C A25C C37A, the self-cleavage is 0.03.

As to G1C G17C C23G A24U C37U C42A G44C, the self-cleavage was 0.01.

In the case of G1U A11U A14U A16U, the self-cleavage came to 0.01.

Take G1C G22C A25G G35C: the self-cleavage was 0.06.

For G1C G5A A11G U20G, the self-cleavage came to 0.

Consider G1C G2C G19A A24U C31G, for which the self-cleavage was determined as 0.08.

Consider G1U A4U U28G G44A, for which the self-cleavage is 1.32.

With G1U A11U A14G C18G, the self-cleavage came to 0.

As to G1U C10A G40U, the self-cleavage came out at 0.01.

As to G1C G2C C18A C31G A41C, the self-cleavage was determined as 0.01.

With G1U A11C A39G, the self-cleavage was 0.01.

For G1U A12G C13U G27U G30A, the self-cleavage worked out at 0.01.
